Source: the supplement of paper PMC12217912
The other results are listed elsewhere or left out. Sequences were assembled here from the parent chain. Inactive controls read about 0.05.

B1: TEV protease; numbered along this chain (parent)
chain: MGESLFKGPRDYNPISSSICHLTNESDGHTTSLYGIGFGPFIITNKHLFRRNNGTLVVQSLHGVFKVKDTTTLQQHLVDGRDMIIIRMPKDFPPFPQKLKFREPQREERICLVTTNFQTKSMSSMVSDTSCTFPSGDGIFWKHWIQTKDGQCGSPLVSTRDGFIVGIHSASNFTNTNNYFTSVPKNFMELLTNQEAQQWVSGWRLNADSVLWGGHKVFMVKPEEPFQPVKEATQL

Variants of: B1
Assay: raw area under fraction-flipped curve 0-4 h after induction (AUC4h, not background-subtracted), DNA-recorder readout of cleavage of the substrate (dimensionless); higher = more cleavage of the substrate by the protease variant
Conditions: temperature: 34 °C; time window: 0-4 h after rhamnose induction
Description: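 In vivo DNA recorder in E. coli TOP10(DE3) ΔrhaA at 34 °C. Each TEVp single-site mutant (parent TEVp 0) is paired with a single-site variant of the 7-mer TEVs (canonical ENLYFQ|S). The substrate sits between flexible linkers in a Bxb1-sfGFP-TEVs-SsrA fusion, so cleavage stabilises Bxb1 and speeds flipping of a recombination array, read by NGS. The value is the raw area under the fraction-flipped curve over 0-4 h after rhamnose induction (AUC4h), with ≥20 reads per time point. It is not background-subtracted; inactive controls average about 0.047.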
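Further: Bxb1 expression induced with 0.2% (w/v) L-rhamnose at OD600 near 0.5, cultures sampled hourly, flipped fraction per protease–substrate barcode pair counted by paired-end Illumina sequencing.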

Variant	area with substrate ENAYFQS	area with substrate ENCYFQS	area with substrate ENDYFQS	area with substrate ENEYFQS	area with substrate ENFYFQS	area with substrate ENGYFQS	area with substrate ENKYFQS	area with substrate ENMYFQS	area with substrate ENNYFQS	area with substrate ENPYFQS	area with substrate ENQYFQS	area with substrate ENRYFQS	area with substrate ENSYFQS	area with substrate ENTYFQS	area with substrate ENVYFQS	area with substrate ENYYFQS	area with substrate ENIYFQS	area with substrate ENHYFQS	area with substrate ENWYFQS
D69E	0.0674	0.0551	0.0714	0.0958	0.0662	0.0585	0.0613	0.0615	0.0538	0.0518	0.063	0.0604	0.0588	0.0556	0.0907	0.0567			
T70E	0.0504	0.0465	0.0596	0.0434	0.0743		0.0724	0.069			0.0503	0.0585	0.0562	0.0509			0.0654		
T70I	0.0541		0.0606	0.0578	0.0615	0.0545	0.064	0.0802			0.0644		0.0524	0.0539	0.0591			0.0395	0.0529
S60K	0.0576	0.0662	0.0596	0.059	0.074	0.0575				0.0648	0.0768	0.0842	0.048	0.0583	0.0647	0.0728	0.0846	0.0524	0.0424
Q75F	0.059	0.0647	0.0666	0.0622	0.0691				0.0616	0.0643	0.0573	0.0534	0.0545	0.0638	0.0678		0.0967	0.0428	
Q75R	0.0599	0.0565	0.0516	0.0232	0.055	0.0686	0.046	0.051	0.0536		0.057	0.0511	0.0562	0.0824	0.0717	0.0645	0.0455	0.0588	0.0183
Q75K	0.0613		0.0565	0.0583	0.0498	0.0747		0.0614	0.0415	0.0655	0.0574		0.063		0.0565	0.0592	0.138		
L73I	0.0453	0.0852	0.0624			0.0728					0.0688		0.0672		0.0759	0.0606	0.103	0.0435	0.0567
L77H	0.0621	0.0605	0.0782	0.0639	0.0582	0.0578	0.0511	0.0459	0.0563	0.0619	0.0645	0.0651	0.0592	0.0545			0.0672	0.0586	
L77I	0.0675	0.0648	0.0584	0.0691		0.0616		0.0691	0.062		0.0472	0.0495	0.0484	0.0492	0.0621	0.0651		0.0738	0.0533
V78W	0.0606	0.0653	0.0651	0.062	0.0478	0.0573	0.0602	0.0547	0.0449	0.0619	0.0571	0.0611	0.0799	0.0528	0.0501	0.0625		0.0484	
V78P	0.0505	0.0463	0.0614	0.0524	0.0591	0.0769	0.0569	0.0609	0.0594		0.063	0.0505	0.0576	0.0654	0.0652	0.0716		0.0602	0.054
V78Y	0.0565			0.0688	0.0557		0.0537	0.0565	0.056		0.0561		0.0628	0.0552		0.0351	0.0639		
T55S	0.0584	0.0697	0.0731	0.118	0.0653		0.0434		0.0578	0.0604	0.0581	0.0437	0.0479	0.0719	0.0566	0.0442			
Q59I	0.0533	0.0712	0.0541		0.0814	0.0637		0.063	0.0332	0.0597	0.0569	0.0603	0.0498		0.0677				
T71E	0.0626	0.0604	0.0601	0.0489		0.0702	0.0805		0.0595		0.111	0.0723	0.0667		0.0863	0.0787	0.0883	0.0501	
F65G	0.0427		0.0698	0.0589	0.0589	0.0527	0.0302	0.0922			0.0666	0.0425	0.119				0.0913	0.0596	0.0451
K66L	0.0621		0.0526	0.0573	0.061	0.057	0.0585	0.0799	0.069	0.0639	0.0608	0.0582	0.064	0.0675	0.0971		0.0905	0.067	0.0678
L61W	0.0609	0.149	0.0658		0.0615	0.0657		0.0876		0.028	0.0401	0.0472	0.0669				0.0975	0.0574	
L61H	0.0616	0.0713	0.0526	0.0603	0.0577		0.069		0.0679	0.0541	0.0615		0.0654	0.0602	0.0704	0.058		0.0622	
N52V	0.0543	0.0421	0.0609	0.0572	0.0544		0.0556	0.0736		0.0586	0.0573	0.0574	0.0593		0.0589	0.059	0.073	0.0624	
N53V	0.0487	0.0588	0.0533	0.0555				0.0705		0.0616	0.0607	0.0555	0.0521	0.0629	0.0543				0.0548
N53C	0.0381	0.0577		0.0588	0.0605	0.0517	0.0612			0.0635	0.0669	0.059	0.0662		0.0711		0.148	0.0811	0.0674
N53S	0.053	0.0639	0.0669	0.0674	0.0447		0.0564		0.0536	0.0427	0.0473	0.0466	0.0525	0.0739	0.0741		0.109	0.0557	0.0644
N53M	0.0561	0.061	0.0528	0.0622	0.0551		0.0467	0.0628			0.0657	0.0794	0.0643	0.048			0.0696		0.141
